Experimental findings from the RNAGym collection of RNA variant scans (doi:10.1093/nar/gkz1192) are described below.

To fix the notation:
B1: CPEB3 Ribozyme (parent)
chain: UAACAGGGGGCCACAGCAGAAGCGUUCACGUCGCAGCCCCUGUCAGAUUCUGGUGAAUCUGCGAAUUCUGCUGUAUAUCUC

The source gives no read counts; variants with many changes may rest on few reads.

Variants of B1 are the subject of this data set. Kind of data set: self-cleavage, relative activity (ratio to wild type); higher = more cleavage; in vitro, sequencing. The method in brief:
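After error-prone PCR and barcoding, CPEB3 ribozyme mutant libraries were transcribed with T7 RNA polymerase at 37°C for 5 hours, then given 15 min with DNase I before an EDTA stop, and they cleaved during both steps. Reverse transcription with template switching preceded Illumina sequencing. Relative activity divides a variant's cleaved/total read fraction by the unmutated ribozyme's. At least 5 reads were required per variant, and three batches were averaged.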
Regarding G7C A45G A57U U69A U72C, the self-cleavage is 0.05.
G7U A18G U26C A28G G33C: the self-cleavage came to 0.47.
As for G7C C17U U51A, the figure is 0.47.
For the variant G7A A64G U76C A77G, the self-cleavage is 0.15.
Turning to G7A U26C U69C U74C U78A, the self-cleavage amounted to 0.19.
Regarding G7C A20G A28G A35G U72G, the self-cleavage amounted to 0.03.
G7A U41C U72C: the self-cleavage came to 0.05.
On to G7U A13G U26C C38U U41C U74C, for which the self-cleavage is 0.06.
For G7A C27A A64G C79U, the self-cleavage was found to be 0.
Turning to G7U C37A U69C, the self-cleavage stood at 0.04.
As to G7U A28G A47G, the self-cleavage stood at 0.21.
Turning to G7U A13G A20G U60A U80C, the self-cleavage was 0.07.
On to G7C G10A U72C A75G, for which the self-cleavage came out at 0.09.
Turning to G7C A35G U49A A64G, the self-cleavage came out at 0.06.
Take G7U A57G U78C: the self-cleavage was determined as 0.24.
For G7A G10A A20U, the self-cleavage was 0.21.
For the variant G7A C12U G70C, the self-cleavage turned out to be 0.07.
G7U C38U U72C: the self-cleavage was 0.18.
Regarding G7A U41A A64U, the self-cleavage amounted to 0.25.
Turning to G7U A18U G19C U49C U54G A65G U72C, the self-cleavage was determined as 0.16.
Regarding G7A A15U U25C U41C G63U U72A, the self-cleavage worked out at 0.14.
For the variant G7A A15G C37G U51C U78C, the self-cleavage turned out to be 0.04.
As for G7U U25A C40G U41A U60C, the figure is 0.3; as for G7U A13U G52C U78C, 0.22; as for G7A A13U G24A U26C U80C, 0.06.
Take G7U A35U U41C U49C C68U U69A: the self-cleavage was 0.22.
With G7U G9U A21G U76A C81A, the self-cleavage amounted to 0.04.
As for G7A G16A A47U U80C, the self-cleavage came to 0.06.
In the case of G7A C44A G70A it was 0.06; in that of G7C G10C A64U U76C, 0.04.
As for G7U C14U U54A A57G A65C U67C, the figure is 0.05; as for G7C A18U A20U U31A U54G U78A, 0.04.
On to G7A C29A U48C U60C, for which the self-cleavage was 0.17.
As for G7U A15G U25C U26C G63U C81U, the figure is 0.18.
In the case of G7U A15G U48C U58C A77U, the self-cleavage is 0.1.
For the variant G7A A64G U69C U76C A77G, the self-cleavage was determined as 0.1.
As for G7U A18G U49G U78C, the self-cleavage is 0.25.
With G7U U31G A57C, the self-cleavage was 0.05.
In the case of G7U A28G U66C A77G, the self-cleavage turned out to be 0.12.
On to G7A U41C U60C G70C U76C, for which the self-cleavage came to 0.05.
In the case of G7C G53C G61U U80C it was 0.19.
In the case of G7C A35C C68A, the self-cleavage was 0.02.
For the variant G7U G10C G33U U43A U60C U80C, the self-cleavage worked out at 0.11.
In the case of G7A G22C A45U, the self-cleavage was found to be 0.15.
As to G7U U31A U51A A56G U60G, the self-cleavage is 0.08.
In the case of G7A A15G A65G U76A, the self-cleavage amounted to 0.15.
With G7A A15G A65G U76C, the self-cleavage amounted to 0.07.
In the case of G7A U25C C62U U67A, the self-cleavage worked out at 0.04.
Consider G7A C11A A35U U43A, for which the self-cleavage came out at 0.06.
As for G7C U69C U72C U78C, the figure is 0.08.
As to G7C U43A U60A A64U, the self-cleavage was 0.13.
For G7U A13G A15U A47U, the self-cleavage is 0.09.
Consider G7U G10U U31A U60A U66C U69A U76C, for which the self-cleavage is 0.03.
In the case of G7A G9A U48C U54C U60C it was 0.04; in that of G7A U25A U31C G33A U51C, 0.05.
Consider G7U U26C U31C U43C, for which the self-cleavage came out at 0.16.
As to G7U U43C U48C, the self-cleavage turned out to be 0.15.
With G7U C38A A75C, the self-cleavage came out at 0.05.
As to G7U C23U U54C, the self-cleavage was 0.17.
For G7A U25A U31G A35G C59U, the self-cleavage worked out at 0.07.
In the case of G7U U41C U60A, the self-cleavage is 0.19.
In the case of G7U G9U U67C it was 0.15; in that of G7A U26A A35U U43A, 0.12; in that of G7A U25A A64G A65G U74A, 0.05.
As for G7A U69C U74C, the figure is 0.18; as for G7U G36U U41A A57G G73C, 0.05.
For the variant G7C A35U U41C U51C, the self-cleavage was 0.07.
G7U A15G A28G U49A G61A U80A: the self-cleavage came out at 0.04.
Regarding G7U U26C U78A, the self-cleavage amounted to 0.07.
As for G7A U48C C62G A75G C79A, the figure is 0.08; as for G7A U25C U41C A64G U78A, 0.2.
As for G7U A18U A20G, the self-cleavage was found to be 0.06.
With G7U C29U U41C A45C, the self-cleavage came to 0.04.
With G7U U41C A64G, the self-cleavage was determined as 0.09.
G7A G8A A18U U80C: the self-cleavage came to 0.07.
As for G7U C11G C39G U67A U69A U80C, the self-cleavage amounted to 0.04.
For the variant G7A U31C U74C C79U, the self-cleavage was determined as 0.07.
With G7U G22U U72A, the self-cleavage amounted to 0.37.
Consider G7C U31C U54C U60C U72A U78A, for which the self-cleavage is 0.05.
For the variant G7U G30U A57U U66G C71U, the self-cleavage came out at 0.02.
Regarding G7U U26C G46U U51A A75G, the self-cleavage worked out at 0.09.
On to G7C U25C C32U A57U G61A A64G, for which the self-cleavage worked out at 0.16.
With G7C A13G A18U A65G U72A G73U, the self-cleavage was determined as 0.05.
Turning to G7U A45U U60A U66C, the self-cleavage was found to be 0.05.
Turning to G7A A13G A15G U26C U76A, the self-cleavage was found to be 0.41.
For G7A A20G U25C A35G A47G U69C, the self-cleavage was 0.22.
As to G7A A18G U31A A35G U48C U51A, the self-cleavage is 0.11.
In the case of G7U A15G U41C U54A U60A U72A it was 0.14; in that of G7U A18G A21G U26C A56U, 0.6; in that of G7U G9C U25C U31A C32U U41C U78A, 0.07.
In the case of G7A U31C U58C U69C, the self-cleavage came out at 0.05.
In the case of G7A U31G A56G U69C, the self-cleavage amounted to 0.06.
As for G7C A35G U51C U60C, the figure is 0.26; as for G7A A28G G53A U54A A64G, 0.22; as for G7U A47G U48C U49C U60A U78C, 0.13.
As for G7A A18G A28U U78C, the figure is 0.18; as for G7C U25C U80C, 0.27; as for G7A U43A U60A U69C U74A, 0.07.
Regarding G7A G9U C37G G63U, the self-cleavage amounted to 0.22.
As for G7C C11U U26C U60C U80C, the figure is 0.06.
Take G7U G36U U72C U78G U80A: the self-cleavage is 0.09.
In the case of G7A A13U A15G A20G U25C A57G U78C, the self-cleavage came out at 0.13.
For G7A G8A A64G, the self-cleavage was 0.24.
Regarding G7U G52C U78C, the self-cleavage was determined as 0.24.
In the case of G7A A13U U31G A35G it was 0.09.
Take G7U A45G A64G: the self-cleavage came to 0.05.
For the variant G7U A15G G16C A18U C29G U80C, the self-cleavage is 0.19.
With G7A A35C U41C A64G U67C U72C U80C, the self-cleavage is 0.04.
In the case of G7A U26C U67A U76A, the self-cleavage is 0.25.
With G7C U31A A45C U67A, the self-cleavage was 0.05.
For the variant G7A U26C A47U G61A A64G C68U U72A, the self-cleavage is 0.06.
Take G7U A15G G52C: the self-cleavage was 0.06.
As for G7U G10C U26C U76C, the figure is 0.15; as for G7C A18U A57C U58G U69C, 0.06.
In the case of G7U G33A A35U A64G U67C it was 0.13; in that of G7C C12U U49C A75U, 0.05; in that of G7A A35C U43C A47U, 0.04.
Consider G7U U41A A57G, for which the self-cleavage was 0.06.
As for G7C U31C A35U A64G, the self-cleavage is 0.17.
For the variant G7C U25C A57U, the self-cleavage was determined as 0.22.
For G7U G10A A15U G19C, the self-cleavage is 0.04.
Consider G7U A45G G61U G70A U74A, for which the self-cleavage was found to be 0.11.
G7C U41C U78C: the self-cleavage came to 0.32.
For the variant G7A A13U U69G U76G, the self-cleavage was determined as 0.04.
Consider G7C A47G U48C, for which the self-cleavage was 0.33.
With G7C A20G A21G A35U U43G U54G, the self-cleavage worked out at 0.09.
With G7C U25C U41C U43C A65G U80A, the self-cleavage was determined as 0.05.
For G7C A13G U54A A65G U67C U72A, the self-cleavage came out at 0.03.
For the variant G7U A47G A57G, the self-cleavage is 0.08.
As for G7U U26C A57U A64G, the self-cleavage is 0.27.
Turning to G7U C11U U25C C71U U78C, the self-cleavage was 0.04.
As to G7A U31C A47U U78C, the self-cleavage worked out at 0.18.
As to G7C U54C A75G, the self-cleavage is 0.23.
As for G7A U41C U67C, the self-cleavage worked out at 0.12.
Take G7U A18U A21G U41A U58C U66C U78A: the self-cleavage stood at 0.03.
Regarding G7U A21G A45G U78C, the self-cleavage stood at 0.14.
On to G7U U26C A65G U72A, for which the self-cleavage came to 0.12.
With G7A U54G U80C, the self-cleavage is 0.25.
For G7U U25C U31C U41C U43A A75G, the self-cleavage worked out at 0.03.
Consider G7U G22C U41C U49A, for which the self-cleavage is 0.16.
As for G7A U25C U43C U80C, the figure is 0.21; as for G7A A28G A56C A64U U67C U78C, 0.05; as for G7U U25C C34U A64G, 0.06.
On to G7A C17U U31G, for which the self-cleavage came out at 0.06.
As for G7A A18G C29U U54A, the self-cleavage was 0.06.
In the case of G8A A13G U26A U41C U54C U72G U76C it was 0.05; in that of G7U A15G A20U A35U A56G U67C, 0.05.
In the case of G7U A47G U58C it was 0.26.
As to G7U A21U U41A U43C G53A, the self-cleavage amounted to 0.14.
In the case of G7A U43A A45G U72C, the self-cleavage turned out to be 0.09.
For the variant G7C A13U A56G U58G A65G, the self-cleavage was 0.29.
In the case of G7U G53C U58A U78C, the self-cleavage was 0.15.
Turning to G7U A15U U25C U80C, the self-cleavage amounted to 0.2.
As for G7C C11A C17U A18G C29U A45G, the figure is 0.06.
With G7A A15U A18G U60C G70A, the self-cleavage amounted to 0.05.
As for G7A A13G U67A, the self-cleavage was determined as 0.07.
In the case of G7A U31C U48C U78C it was 0.06.
Turning to G7A A13G U72G, the self-cleavage was 0.06.
In the case of G7A U25C U76A it was 0.07; in that of G7A A13U C32U U43A C59U U74C, 0.21.
As to G7A G24A U31C U74C, the self-cleavage worked out at 0.14.
Consider G7A U26A A35G U60C, for which the self-cleavage was 0.08.
Take G7U A20G A35U C39U U72C U78C: the self-cleavage is 0.05.
For the variant G8A A13G A15U C40U A64U U69A, the self-cleavage stood at 0.04.
For the variant G7A A21G C32G U60C C62U A65G U66C, the self-cleavage was determined as 0.02.
Take G7U C40G U51A A75U U78C: the self-cleavage came to 0.04.
As for G7A U67A U69C, the figure is 0.13.
